Results reported in the supplement of paper PMC3334620.
Over roughly 33,000 sequences, “E-score (-0.5 to 0.5)” has its median near -0.012; the highest 2% begin near 0.29. The list shows a part of the results.

biological target: T1, Ybr033w (UniProt P38073); assay: PBM E-score (8-mer binding enrichment) (E-score (-0.5 to 0.5)); higher = stronger / more preferred TF binding; most listed sequences are background and not binding sites; conditions: protein concentration: 200 nM; construct: GST-full length
T1 sequence: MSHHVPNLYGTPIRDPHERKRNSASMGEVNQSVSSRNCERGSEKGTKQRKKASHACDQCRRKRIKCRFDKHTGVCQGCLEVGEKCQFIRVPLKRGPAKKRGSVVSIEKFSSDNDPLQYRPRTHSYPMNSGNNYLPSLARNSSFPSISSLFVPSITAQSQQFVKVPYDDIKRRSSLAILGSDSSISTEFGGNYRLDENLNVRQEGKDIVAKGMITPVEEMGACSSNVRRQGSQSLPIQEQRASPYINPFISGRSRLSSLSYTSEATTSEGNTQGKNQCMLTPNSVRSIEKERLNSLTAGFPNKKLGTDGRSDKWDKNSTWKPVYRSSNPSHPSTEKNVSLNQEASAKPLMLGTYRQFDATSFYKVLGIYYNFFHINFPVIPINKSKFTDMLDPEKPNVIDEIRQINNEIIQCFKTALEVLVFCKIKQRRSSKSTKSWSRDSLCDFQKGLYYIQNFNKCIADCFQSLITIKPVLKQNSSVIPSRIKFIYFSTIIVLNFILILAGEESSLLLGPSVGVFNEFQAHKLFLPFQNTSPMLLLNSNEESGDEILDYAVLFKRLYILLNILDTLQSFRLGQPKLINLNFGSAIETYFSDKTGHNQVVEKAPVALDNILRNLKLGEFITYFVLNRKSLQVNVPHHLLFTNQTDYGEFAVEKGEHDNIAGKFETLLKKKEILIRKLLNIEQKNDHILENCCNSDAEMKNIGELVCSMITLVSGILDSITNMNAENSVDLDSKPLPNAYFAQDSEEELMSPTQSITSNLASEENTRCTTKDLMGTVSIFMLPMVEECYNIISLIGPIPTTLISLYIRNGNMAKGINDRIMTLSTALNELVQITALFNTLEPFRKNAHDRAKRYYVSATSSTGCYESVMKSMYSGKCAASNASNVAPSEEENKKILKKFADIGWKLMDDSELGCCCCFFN
Outline: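 Full-length yeast transcription factors or their DNA-binding domains, GST-tagged and expressed with PURExpress, were applied at about 100-200 nM to universal all-10-mer Agilent arrays. These arrays had been made double-stranded by primer extension on fresh or once-stripped slides. Detection used fluorescent anti-GST, normalisation used masliner, and E-scores for ungapped eight-base words pooled with reverse complements came from the Universal PBM Analysis Suite.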

First: ATGTGAAC
Second: ACGACAAC
The “PBM E-score” value of the first is lower: -0.132 for the first, 0.096 for the second.

First: TAAATTAA
Second: CCTTGATA
The “PBM E-score” value of the first is higher: 0.283 for the first, 0.105 for the second.

Compared with ATTGCACC, GGCGCTTA is lower in “PBM E-score” value: 0.0271 for the first, -0.164 for the second.

First: ATCTAGCA
Second: ATATTAAT
The “PBM E-score” value of the first is lower: 0.0532 for the first, 0.314 for the second.

Compared with ATATCTGC, ACGATAAA is lower in “PBM E-score” value: 0.0752 for the first, -0.0127 for the second.

First: ACGTCCCT
Second: GCCTTGGA
The “PBM E-score” value of the first is higher: -0.0559 for the first, -0.248 for the second.

First: AACTCTCT
Second: ACATGTAA
The “PBM E-score” value of the first is lower: 0.0664 for the first, 0.179 for the second.

Compared with GTTGACTA, AAAGTAGG is higher in “PBM E-score” value: 0.0137 for the first, 0.107 for the second.

Compared with AGAGGCTG, TAGGCCCA is higher in “PBM E-score” value: -0.239 for the first, -0.171 for the second.

First: CTCAAACA
Second: ACTGCCCG
The “PBM E-score” value of the first is higher: 0.152 for the first, -0.0826 for the second.

First: AACTTTGG
Second: ATGTTGAG
The “PBM E-score” value of the first is higher: 0.0726 for the first, -0.038 for the second.

Compared with ACCACATC, GCAATTCC is lower in “PBM E-score” value: 0.0457 for the first, -0.0347 for the second.

Going from CCAAATCG to GGGGTACA, the “PBM E-score” value falls from -0.0947 to -0.227.

Compared with ACAATACC, CCTCAGAC is lower in “PBM E-score” value: 0.166 for the first, -0.111 for the second.

First: AACAGGTG
Second: ACCGTGAT
The “PBM E-score” value of the first is lower: -0.0949 for the first, -0.0251 for the second.

Going from ACCGGGTG to ACCTGACG, the “PBM E-score” value rises from -0.185 to -0.12.

Compared with GCACCCCC, AGCAACCT is higher in “PBM E-score” value: -0.384 for the first, -0.101 for the second.

Compared with CTGACCAA, TGGTCACA is lower in “PBM E-score” value: 0.157 for the first, 0.0567 for the second.

Compared with GGGGAACC, AGCAGTAC is higher in “PBM E-score” value: -0.315 for the first, -0.11 for the second.

Going from CTCTCGTA to ACCACGTC, the “PBM E-score” value falls from 0.00252 to -0.0489.

Going from AGCCCCGC to GATGCCCC, the “PBM E-score” value falls from -0.111 to -0.335.

First: AAGTGGCA
Second: TCGCAACA
The “PBM E-score” value of the first is lower: -0.121 for the first, -0.0873 for the second.

First: ATTGACCA
Second: GATTAGCA
The “PBM E-score” value of the first is higher: 0.0379 for the first, 0.0317 for the second.

Compared with CTGCCTCA, GTTAAACA is higher in “PBM E-score” value: -0.236 for the first, 0.268 for the second.

Compared with CGCTAATA, ACTACCGG is lower in “PBM E-score” value: 0.0954 for the first, -0.11 for the second.

Compared with GCAATGGA, AAACAAGT is higher in “PBM E-score” value: 0.06 for the first, 0.13 for the second.

First: CTGGGGCC
Second: GATCACGA
The “PBM E-score” value of the first is lower: -0.29 for the first, 0.114 for the second.

First: CCCTACGG
Second: CGCGTAGC
The “PBM E-score” value of the first is lower: -0.199 for the first, -0.138 for the second.

Going from GACACTAC to ATACTCGC, the “PBM E-score” value rises from -0.0871 to 0.0494.

First: CTAGAATA
Second: GGGCTCAA
The “PBM E-score” value of the first is higher: 0.134 for the first, -0.131 for the second.

Compared with GGATCCAC, GATGCCGC is higher in “PBM E-score” value: -0.169 for the first, -0.144 for the second.

First: CAGAGGTA
Second: CTAACACC
The “PBM E-score” value of the first is higher: -0.00719 for the first, -0.128 for the second.

First: GGCGTAGA
Second: CGAGCTCG
The “PBM E-score” value of the first is higher: -0.0519 for the first, -0.21 for the second.

Compared with AATTCGCA, AAACGGCA is lower in “PBM E-score” value: 0.114 for the first, -0.0701 for the second.

First: ACTAGCGA
Second: ATACATCA
The “PBM E-score” value of the first is lower: 0.0237 for the first, 0.222 for the second.

Compared with GTCTTCAA, CCTTCAGC is lower in “PBM E-score” value: -0.115 for the first, -0.203 for the second.

Compared with CAGACATA, CCGCGGAG is lower in “PBM E-score” value: -0.00613 for the first, -0.215 for the second.

First: ATTGAGTG
Second: GATCAGGC
The “PBM E-score” value of the first is higher: 0.0552 for the first, -0.0722 for the second.

Going from TCCAAGGA to AGTCTAGA, the “PBM E-score” value falls from 0.139 to 0.0109.

GATCGACA and ACCCTCCC are the same in “PBM E-score” value: 0.0395 for the first, 0.0395 for the second.

Compared with GTCGCAGA, AATCTTGT is higher in “PBM E-score” value: 0.091 for the first, 0.239 for the second.

First: CGTGCTAA
Second: CCATTTGA
The “PBM E-score” value of the first is higher: 0.0693 for the first, 0.0264 for the second.

First: TCTTCGCA
Second: CTTCAGTC
The “PBM E-score” value of the first is higher: 0.063 for the first, -0.0524 for the second.

Going from AACGAAGG to TACTCCAA, the “PBM E-score” value rises from -0.0656 to 0.169.

First: ACGTCAAC
Second: GATGTTCC
The “PBM E-score” value of the first is lower: 0.0705 for the first, 0.412 for the second.

First: ACAGCTCC
Second: AAATGTAG
The “PBM E-score” value of the first is higher: 0.0221 for the first, -0.00055 for the second.

Compared with TACAATCA, AAGAGATA is lower in “PBM E-score” value: 0.171 for the first, 0.0971 for the second.
